# Experimental data as given in PubChem BioAssay AID602313 (National Center for Advancing Translational Sciences (NCATS), 2012).
# The whole screen tested about 390,000 compounds, of which about 760 (0.19%) were called active. Inconclusive results (about 3%) are left out. The call rests on the fitted dose curve; in most records, active means well fitted inhibition curve with a large enough effect; inconclusive means small, poorly fitted or top-dose-only effect; inactive means flat fitted curve, though single readings scatter. This is a selection; strong and weak results do not stand in their true shares.
# Assay: qHTS for Inhibitors of Vif-A3F Interactions: qHTS; further: nearly all actives have a fitted effect of over 65% in size; on activity, negative = active: % of control where 0% means no effect
# Settings: HeLa A3F-eYFP + Vif (tagged APOBEC3F with the HIV-1 protein that degrades it), YFP fluorescence increase; series mostly up to 46.1 µM; activity, negative = active: at the top concentration
# Outline: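 HeLa cells stably expressing A3F-eYFP plus Vif, plated and incubated overnight at 37 deg C, then exposed to compounds overnight at 37 deg C. Blocked degradation read as raised yellow fluorescence (Ex 488/Em 500-530).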
# Potency means the concentration at half of the fitted maximal effect.
Structure (SMILES),"activity, negative = active",Potency
CCOC(=O)C(Cc1ccc(NC(=O)/C(=C/c2ccccc2)NC(=O)c2ccccc2)cc1)N1C(=O)c2ccccc2C1=O (stereo unspecified),inactive: 6.59%,–
Cc1cn(-c2cc(C(=O)Nc3ccc(C)c(NC(=O)C(=O)c4c[nH]c5ccccc45)c3)cc(C(F)(F)F)c2)cn1,inactive: -9.18%,–
Cc1ccn2cc(C(=O)NCc3ccco3)nc2c1,inactive: 19.2%,–
O=C(Nc1cccc2ccccc12)/C(=C/c1cccc([N+](=O)[O-])c1)NC(=O)c1cccs1,inactive: 3.33%,–
Cc1cccc(NS(=O)(=O)c2ccc3[nH]c(=O)[nH]c3c2)c1C,inactive: -7.71%,–
CC1CCC(C(C)C)C(OC(=O)Cn2c(-c3ccccc3)[n+](C)c3ccccc32)C1 (stereo unspecified),inactive: -9.99%,–
Cc1coc(NC(=O)CSc2nc(-c3ccncc3)cc(C(F)(F)F)c2C#N)n1,–,active: 11.2 µM
O=C(NCC1CCCO1)c1cccc2c1C(=O)c1ccc(N3CCC(Cc4ccccc4)CC3)cc1S2(=O)=O (stereo unspecified),–,active: 25.1 µM
O=C(NCc1ccc(Cl)cc1)C1CCN(S(=O)(=O)c2cccc3nonc23)CC1,inactive: 1.64%,–
COc1ccc(-c2cc(C(=O)Nc3cc(OC)cc(C(=O)Nc4cccc(C(F)(F)F)c4)c3)[nH]n2)cc1,inactive: -18.7%,–
Cc1ccc(Nc2nnc(SC/C(O)=C(\C#N)c3nc4ccccc4[nH]3)s2)c(C)c1,inactive: -29.8%,–
COc1cc(/C=C2/SC(=Nc3ccc(O)cc3)NC2=O)ccc1O,–,active: 25.1 µM
COc1ccccc1N1CCN(C(=O)CNC(=O)c2cn(-c3ccccc3OC)c(=O)c3ccccc23)CC1,inactive: 30.2%,–
COc1ccc(CNC(=O)CCCn2c(=O)c3cccn3c3cccnc32)cc1,inactive: 0.678%,–
COc1cc2c3nnc(-c4ccc(F)cc4)c-3cn(Cc3ccccc3F)c2cc1OC,–,active: 25.1 µM
O=C1CSC(=Nc2cccc(Cl)c2Cl)N1Cc1cccnc1,inactive: 31%,–
CCOCCCNC(=O)/C(C#N)=C/c1ccc([N+](=O)[O-])o1,–,active: 12.6 µM
CC(C)(C)NC(=O)[C@@H]1C[C@@H]2CCCC[C@@H]2CN1C[C@@H](O)[C@H](Cc1ccccc1)NC(=O)[C@H](CC(N)=O)NC(=O)c1ccc2ccccc2n1,inactive: -15.5%,–
[O-]/C(=C(\C(=S)Nc1cccc2ccccc12)[n+]1ccccc1)c1ccc2c(c1)OCCO2,inactive: -2.94%,–
CCOc1ccccc1NC(=O)Cn1nnc(C(=O)NCc2cccs2)c1N,inactive: -14.1%,–
COc1ccc(NCc2cc3cc4c(cc3n(CC(=O)Nc3cc(C)ccc3C)c2=O)OCCO4)cc1,–,active: 12.6 µM
Cn1c(N/N=C/c2cc3ccccc3nc2Cl)nc2ccccc21,–,active: 22.4 µM
Cc1cc(/C=C2\NC(=S)NC2=O)c(C)n1-c1cccnc1,inactive: -18.5%,–

Structure (SMILES),"activity, negative = active",Potency
O=C(N/N=C/C(Cl)=C/c1ccccc1)c1ccco1,inactive: -15.8%,–
O=C1C(=Cc2cccn2-c2ccccc2)C(=O)c2ccccc21,–,active: 28.2 µM
CCCCCCN1C[C@@H](O)[C@H](n2cc(COC(=O)c3ccccc3)nn2)C[C@@H]1c1ccc(C)cc1,inactive: -10.1%,–
CC1(C)CC(=O)C2=C(C1)OC(N)=C(C#N)C2c1ccccc1[N+](=O)[O-] (stereo unspecified),inactive: -34.1%,–
CCN1/C(=C/c2cc[n+](C)cc2)C=Cc2cc(C)ccc21,–,active: 12.6 µM
COc1cc(CNc2ccc3[nH]c(=O)[nH]c3c2)ccc1OCc1ccc(F)cc1Cl,inactive: -8.33%,–
COc1cc(Nc2nc3ccccc3n3nnnc23)cc(OC)c1OC,–,active: 6.31 µM
CCN1C/C(=C/c2ccc(N3CCOCC3)cc2)C(=O)/C(=C/c2ccc(N3CCOCC3)cc2)C1,–,active: 25.1 µM
Cc1c2ccccc2nc2c(F)c(N(C)C)c(F)c(F)c12,–,active: 25.1 µM
O=C1C2C(C(=O)N1CCN1CCN(Cc3ccc([N+](=O)[O-])cc3)CC1)[C@H]1C=C[C@@H]2C1 (stereo partly specified),inactive: -1.65%,–
COc1ccc([N+](=O)[O-])cc1NC(=O)CC1SC(=Nc2cccc(C)c2C)N(/N=C/c2cccc(OC)c2OC)C1=O (stereo unspecified),inactive: 2.71%,–
CCO/C=C1/C(=O)N(CC)c2ccccc21,inactive: -6.83%,–
C[C@@H]1CN([C@H](C)CO)C(=O)c2cc(Br)cnc2O[C@H]1CN(C)Cc1ccccc1,inactive: -1.03%,–
N#C/C(=C/C=C/c1ccccc1)C(=O)Nc1ccccc1,inactive: -1.65%,–
O=C(O)CSc1cccc2cccnc12,inactive: 4.24%,–
O=C(/C=C(\O)c1ccc(Cl)cc1)C(=O)NNC(=O)C(O)(c1ccccc1)c1ccccc1,inactive: -0.539%,–
Cn1nnnc1SCCNCc1cc(Br)ccc1OCc1ccccc1Cl,–,active: 12.6 µM
CCCCCC1C(=O)N2C=C(c3ccccc3)c3ccccc3N2C1=O (stereo unspecified),inactive: 18.8%,–
O=C(NCCCn1ccnc1)/C(=C\c1cccs1)NC(=O)c1ccco1,inactive: -21.6%,–
COc1ccc2c(C)cc(SCC(=O)N3CCOCC3)nc2c1,–,active: 25.1 µM
CC(NC(=O)c1ccco1)c1nc(-c2ccccc2)no1 (stereo unspecified),inactive: 4.46%,–
O=C1c2ccccc2C(=O)c2c(/C=C/N3CCCCC3)ccnc21,–,active: 22.4 µM
Cc1occc1C(=O)N/N=C/C(Br)=C\c1ccccc1,inactive: -27.2%,–

Structure (SMILES),"activity, negative = active",Potency
CN(CCC#N)C(=O)COC(=O)c1c2c(nc3ccccc13)/C(=C/c1ccco1)CC2,inactive: -7.58%,–
N#C/C(=C/c1ccc(-c2ccccc2[N+](=O)[O-])o1)C(N)=O,inactive: -3.58%,–
CCN1C(=O)/C(=C\c2cn(-c3ccccc3)nc2-c2cccnc2)SC1=S,inactive: -28.1%,–
O=c1oc(/C=C/c2ccc([N+](=O)[O-])s2)nc2ccccc12,–,active: 28.2 µM
Cc1ccc(S(=O)(=O)c2nc(-c3ccco3)oc2SC(C)C)cc1,inactive: 1.36%,–
COC1=C(Br)C(=O)c2ncccc2C1=O,–,active: 11.2 µM
CCN(CC)CCNC(=O)C1CCN(S(=O)(=O)c2c(C)noc2/C=C/c2ccccc2F)CC1,inactive: -2.45%,–
O=[N+]([O-])c1ccc(N/N=C/c2c[nH]c3ccccc23)cc1,–,active: 12.6 µM
Cc1ccc(C)c(N2CCN(C(=O)c3ccc4c(c3)c(C)c(C)n4C)CC2)c1,inactive: -13.7%,–
CCN1CCN(c2cc(C)c3cc(NC(=O)c4ccc(OC)c(OC)c4)ccc3n2)CC1,inactive: -3.73%,–
Cc1ccc(C(=O)N/C(=C\c2ccc(-c3cccc([N+](=O)[O-])c3)o2)C(=O)NCCCN(C)C)cc1,inactive: -11.6%,–
CC(/C=N/NC(=O)CSc1ccccn1)=C\c1ccc(C(C)C)cc1,inactive: 5.54%,–
COc1cccc(NC(=S)N2CCC(c3ccc(C)cc3)C2)c1 (stereo unspecified),inactive: 28%,–
Cn1cc(C(=O)N/N=C/C(Br)=C\c2ccccc2)ccc1=O,inactive: -25.3%,–
N#Cc1cccc(NC(=O)CSc2ccc3c4c(cccc24)C(=O)c2ccccc2-3)c1,–,active: 11.2 µM
CC(C)C(NC(=O)OCc1ccccc1)C(=O)OCC(=O)NCc1ccco1 (stereo unspecified),inactive: -1.1%,–
Cc1ccc(Cl)c2c(N=Nc3ccccc3)c(O)[nH]c12,–,active: 8.91 µM
CCCCCCN1C[C@@H](O)[C@H](n2cc(-c3ccc(F)cc3)nn2)C[C@@H]1c1ccccc1,inactive: -19.5%,–
O=C(NCCc1cccs1)c1ccc(Cl)c(Cl)c1,–,active: 2.51 µM
Cc1nc2ccc(NC(=O)c3cc(S(=O)(=O)N(C)c4ccccc4)ccc3Cl)cc2s1,–,active: 22.4 µM
CCc1ccccc1NC(=O)Cn1nnc(C(=O)NCc2cccc(OC)c2)c1N,inactive: -4.67%,–
CC(C)(C)c1ccc(OCC(=O)Nc2ccc3c4c(cccc24)C(=O)NC3=O)cc1,–,active: 12.6 µM
CCCN(C(=O)c1cn(C)c(=O)c2ccccc12)c1ccccc1C,inactive: -3.64%,–

Structure (SMILES),"activity, negative = active",Potency
N#CC1=C(N)C(C#N)(C#N)C(c2cccnc2)C2CN(C(=O)OCc3ccccc3)CC=C12 (stereo unspecified),inactive: -5.91%,–
CCCSc1ccc([C@@H]2[C@@H]3C(=O)N(CC)C(=O)[C@@H]3[C@]3(C(=O)OC)CCCCN23)cc1OC,inactive: -4.74%,–
CC(=C/c1ccccc1)/C=N/NC(=O)CSc1nc(C)cc(C)n1,inactive: -12.6%,–
COc1cc(N2CCCC2)c(OC)cc1/C=C(/C#N)c1ccc(F)cc1,–,active: 10 µM
O=S(=O)(Nc1nc2ccccc2nc1N1CCN(c2ccccn2)CC1)c1ccc(Cl)cc1,–,active: 7.94 µM
CCOC(=O)c1csc(-c2ccc3c(c2)CCO3)n1,inactive: 25.3%,–
O=C(OCc1cn([C@H]2CN(Cc3cccs3)[C@@H](c3ccc(Cl)cc3)C[C@@H]2O)nn1)c1ccccc1,inactive: -0.0844%,–
CC(C)(C)c1nnc2sc(SC/C(O)=C(\C#N)c3nc4ccccc4[nH]3)nn2c1=O,inactive: -8.17%,–
Cc1ccc(C(=O)Nc2cccc(C(F)(F)F)c2)cc1NC(=O)c1cnnc2ccccc12,inactive: -0.93%,–
COc1ccc(Cl)cc1N1C(=O)/C(=C\c2sccc2C)N=C1SCC(=O)NC1CC1,inactive: -13.9%,–
O=C(N/N=C/C(Cl)=C/c1ccccc1)c1cnccn1,inactive: -1.46%,–
CC[C@]12CCCN3CCc4c(n(c5ccccc45)[C@@](O)(C(=O)OC)C1)[C@@H]32,inactive: -10.8%,–
Cc1cccc(N=C2NC(=O)/C(=C\c3cccs3)S2)c1,inactive: -5.17%,–
O=C(c1ccc(OCCN2CCCCC2)cc1)c1c(-c2ccc(O)cc2)sc2cc(O)ccc12,inactive: -7.71%,–
CCCCCCN1C[C@H](n2cc(-c3ccc(F)cc3)nn2)[C@@H](O)C[C@@H]1c1ccc(OC)cc1,inactive: -22.5%,–
O=C(NC1CCS(=O)(=O)C1)c1sc2ccccc2c1Cl (stereo unspecified),inactive: 14.5%,–
O=C(COC(=O)/C=C/c1cccc(F)c1)Nc1ncccn1,inactive: 18%,–
CCc1cccc(CC)c1NC(=O)CSc1nc2ccc(N3C(=O)C4C(C3=O)[C@H]3C=C[C@@H]4C3)cc2s1 (stereo partly specified),inactive: 9.92%,–
O=C(NCc1ccco1)/C(=C\c1cccc([N+](=O)[O-])c1)NC(=O)c1ccco1,inactive: 2.36%,–
COc1ccc2c(C)cc(SCC#N)nc2c1,–,active: 22.4 µM
C[C@@H]1COC(=O)[C@H](NC(=O)OCC2c3ccccc3-c3ccccc32)C/C=C\C[C@@H](CC(=O)N[C@@H](CO)Cc2ccccc2)C(=O)N1,inactive: -1.71%,–
COc1ccc2c(C=Nc3c(C)n(C)n(-c4ccccc4)c3=O)c(O)n(Cc3ccco3)c(=O)c2c1,inactive: -27.8%,–
